According to the supplement of paper PMC12217912:
The other results are listed elsewhere or left out. The full chains were built here from the parent and the listed change. Values near 0.05 are background.

B1: TEV protease; numbered along this chain (parent)
chain: MGESLFKGPRDYNPISSSICHLTNESDGHTTSLYGIGFGPFIITNKHLFRRNNGTLVVQSLHGVFKVKDTTTLQQHLVDGRDMIIIRMPKDFPPFPQKLKFREPQREERICLVTTNFQTKSMSSMVSDTSCTFPSGDGIFWKHWIQTKDGQCGSPLVSTRDGFIVGIHSASNFTNTNNYFTSVPKNFMELLTNQEAQQWVSGWRLNADSVLWGGHKVFMVKPEEPFQPVKEATQL

Variants of: B1
Assay: raw area under fraction-flipped curve 0-4 h after induction (AUC4h, not background-subtracted), DNA-recorder readout of cleavage of the substrate (dimensionless); higher = more cleavage of the substrate by the protease variant
Settings: temperature: 34 °C; time window: 0-4 h after rhamnose induction
Procedure: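 In vivo DNA recorder in E. coli TOP10(DE3) ΔrhaA at 34 °C. Each TEVp single-site mutant (parent TEVp 0) is paired with a single-site variant of the 7-mer TEVs (canonical ENLYFQ|S). The substrate sits between flexible linkers in a Bxb1-sfGFP-TEVs-SsrA fusion, so cleavage stabilises Bxb1 and speeds flipping of a recombination array, read by NGS. The value is the raw area under the fraction-flipped curve over 0-4 h after rhamnose induction (AUC4h), with ≥20 reads per time point. It is not background-subtracted; inactive controls average about 0.047.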
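Further: Bxb1 expression induced with 0.2% (w/v) L-rhamnose at OD600 near 0.5, cultures sampled hourly, flipped fraction per protease–substrate barcode pair counted by paired-end Illumina sequencing.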

Variant	area with substrate ENLYFCS	area with substrate ENLYFES	area with substrate ENLYFIS	area with substrate ENLYFKS	area with substrate ENLYFMS	area with substrate ENLYFNS	area with substrate ENLYFPS	area with substrate ENLYFSS	area with substrate ENLYFTS	area with substrate ENLYFWS	area with substrate ENLYFFS	area with substrate ENLYFLS	area with substrate ENLYFRS	area with substrate ENLYFVS	area with substrate ENLYFAS	area with substrate ENLYFDS	area with substrate ENLYFGS	area with substrate ENLYFYS	area with substrate ENLYFHS
Q75G	0.0337	0.0669	0.0591	0.0633	0.0663	0.0605	0.0597	0.0617	0.0551	0.0531									
G166Y	0.0511		0.0541	0.0603	0.0406	0.0527			0.0526	0.0292	0.0602	0.0557	0.0671	0.0404					
G166H	0.0592		0.0439	0.0436	0.0523	0.0634	0.0451	0.0485	0.0795			0.0669	0.0573	0.0432	0.0514				
A196C	0.059		0.0556																
V157H	0.0499	0.0622	0.0414	0.0531	0.0565	0.0531	0.0565	0.0574	0.0503	0.0507	0.0588		0.0617	0.0491	0.0524	0.0469	0.0431	0.0539	
V157C	0.0721	0.0645	0.0689	0.0558	0.0656	0.0639	0.0519	0.0496	0.0618	0.0615	0.0714					0.0236			0.0583
F173V	0.0657	0.0574	0.0542	0.137	0.0648	0.0433		0.0663	0.0638	0.0529	0.0633	0.0268	0.0549			0.0667		0.0579	
P228T	0.0553	0.0883			0.0695	0.0597	0.0717	0.0503		0.053		0.0634						0.0498	
P228I	0.0629	0.0715							0.0664		0.0651	0.0238	0.0635						
N24I		0.0649	0.0575	0.0721	0.0736	0.0684	0.0617	0.0662	0.0572	0.0624	0.0647	0.082	0.0613		0.0544	0.0304	0.0607	0.0638	0.0587
D161L	0.0585	0.0584	0.0502	0.0599	0.0556	0.0582	0.059			0.0277	0.0496		0.0473	0.0511	0.0557			0.0443	
Q59W	0.0704	0.0645	0.0571	0.0602	0.0576	0.0601	0.0718		0.0671	0.0694		0.0744					0.0878	0.0679	
H62P	0.051		0.0503				0.0535	0.0601		0.0617			0.0547			0.0663		0.054	
H62Q	0.062	0.0446	0.0554		0.0671			0.0472		0.0763	0.0716							0.0608	
C20I	0.062	0.0313	0.0519		0.0634	0.0742	0.0582			0.0442	0.0778	0.0561	0.0758			0.0595	0.0488	0.0724	
G214L	0.0689		0.0393	0.0502	0.058		0.0519		0.0647	0.0461	0.0538		0.0525			0.0461			
E231K	0.0572	0.0666	0.0584		0.0584		0.0622						0.0785						0.0772
R50A	0.0543	0.0715	0.0625	0.076	0.0536	0.0664	0.0643	0.0647	0.0675	0.0559	0.0674	0.0599	0.0616	0.0591		0.0741	0.0692		0.0626
D149A	0.0625		0.0299	0.0602	0.0662	0.0679	0.0577	0.0651	0.0632	0.044	0.0633	0.0716		0.0673			0.0501	0.0627	0.046
G162T	0.0379		0.0686	0.0462	0.0588	0.056	0.0669	0.0633	0.0635	0.0552	0.0606								
L156F	0.0548	0.0445	0.0584	0.0706	0.0888	0.0597	0.0332	0.0812	0.0613	0.0467	0.064		0.0531	0.0364	0.0499				
R109N	0.0408	0.1		0.0555	0.0629		0.0764	0.085	0.0578		0.0731		0.0612		0.0566	0.0499	0.0716		
M83H		0.0565	0.0527		0.0569		0.0378	0.0522		0.0393	0.0655	0.0513	0.0454		0.0496	0.0603	0.0449		0.0512
Y34T				0.0547	0.0737	0.0576	0.0581			0.055			0.0526		0.0574	0.0655			0.0711
D27I	0.059	0.0468	0.0548	0.0578	0.0628		0.0576	0.0541	0.0679		0.0757			0.0598			0.0584	0.0569	0.0607
M188V	0.0482		0.0516			0.0792	0.053	0.0501		0.0774	0.0701	0.0534	0.0517				0.048	0.0473	
M188G	0.0618		0.0584	0.0618			0.0614		0.0672	0.0715		0.0539						0.0576	0.0905
L33T	0.054	0.0704		0.065	0.0696	0.054	0.0654		0.0453		0.0829			0.0569					
P93G	0.0568	0.0625	0.0553			0.0543	0.0445	0.101	0.0762	0.0548	0.0667	0.0583	0.0649				0.0463		
P93E	0.0528	0.0764				0.0587	0.0574				0.0529		0.0576			0.109	0.0402		
